Source: paper PMC10726135
The list shows a part of the results. At the low end of the ranking the order means little. Measured with an extract: partners may take part in the binding.

target: T1, HNF4alpha8 (COS-7 nuclear extract) (UniProt P41235-5); assay: protein-binding microarray; conditions: COS-7 nuclear extract on double-stranded Agilent 4x180k PBM; binding buffer, salt, pH and temperature not given; high values mean tight binding; double strand, one strand shown; sequences stand for … in …GCCTAGGGAGATTAGAGTATCGGTCGA
T1 sequence: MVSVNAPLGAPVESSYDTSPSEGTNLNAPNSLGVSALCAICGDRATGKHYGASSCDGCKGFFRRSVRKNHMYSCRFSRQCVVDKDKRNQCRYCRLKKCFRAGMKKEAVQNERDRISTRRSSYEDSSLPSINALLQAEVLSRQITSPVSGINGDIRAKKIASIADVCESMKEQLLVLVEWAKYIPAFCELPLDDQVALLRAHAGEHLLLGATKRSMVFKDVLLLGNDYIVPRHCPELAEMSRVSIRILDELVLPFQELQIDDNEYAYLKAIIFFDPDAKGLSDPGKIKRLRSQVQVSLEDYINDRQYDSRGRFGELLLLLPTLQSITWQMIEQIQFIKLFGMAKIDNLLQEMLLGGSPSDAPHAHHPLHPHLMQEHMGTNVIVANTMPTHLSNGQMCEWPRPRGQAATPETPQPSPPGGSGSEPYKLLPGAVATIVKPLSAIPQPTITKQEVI

| Sequence | binding signal (log2 normalized intensity) |
| --- | --- |
| TTGAGCTGCTAAACCAACACCAGCAACCGC | -1.21 |
| CTCTGCCTCGGCCACATTCCCCGACTCCTG | 1.65 |
| ACAGATGGCCTCACTCGGTGTGAGTGGTCC | 0.966 |
| ACCAGGTAGGGCCCCCAGCCAGGCCCCAGG | 1.32 |
| CTCAAGGAATCCTCCTAAGTAGCCAAGATT | -1.4 |
| ATGCCCAAATGAATAATCCCCTCCTGGACT | 3.33 |
| AGTTCCGAGTTCCCTCGATTATTTCAGCCA | -1.28 |
| ACCTCGATCCCTGGCTAAGGTCCTGTTTGT | 1.69 |
| GGATTTCTTGGCTTCTCTTGGACCTCAATG | 2.36 |
| GGGCCAGCTGTACAAATAAAGGATGAAGGA | -0.943 |
| AGGGTACAAATTCCAGAGAGGGGCCTCCAT | 1.89 |
| TAGACATAGGTTATAAACTTGTTTGGGATT | 0.308 |
| ACTTGTTATCACCTGCTGGAATGTTTCAAG | 1.48 |
| CATATTCCTTAGATAAAAAGCTTTTCTTCC | -0.947 |
| TCTTTACACATCTGTTAGGAATGTCATGCA | 0.608 |
| GAGTTCAGTTATCATTTCTACAGGGTCAAG | 3.09 |
| GGGGGTGGAGAAGGAAGGGGAAGATGATAG | -1.3 |
| TCCGGCCTGAGGCAGGATCAGGGCCCCTTC | -1.22 |
| GACCTCGGCGGAGCCTCCGGCCTGAGGCAG | -1.34 |
| AAAGAGAAAGTAAGTGCACAGCCAGAACTG | -1.35 |
| GTCCGACTGCACACCGTCCAGAGGCTCCAA | -1.4 |
| TGAAAGTCCACTTGTCTGGCCTTCCTGGCC | 1.32 |
| CCTGGGCTGTATGTTCTAACCATAGGAGGC | 0.0159 |
| AATGTGCCCAGATAAGAACTGCAAGGCTAG | -1.32 |
| TCTTTCGCTGTAGAAAGTGGTTTCAAGGTG | 1.24 |

| Sequence | binding signal (log2 normalized intensity) |
| --- | --- |
| GTGCTGGGGACAAAAGCTGAGTCCCTGCTT | -1.05 |
| GTTCAAACTTTATTTGATGATGAAGCAACA | 0.662 |
| CGCCCTTGGAATATCCTGCCTAACAGGAGT | -1.35 |
| TGGTTTACTTATGTCTCCAGAAACCAACCT | 0.592 |
| CATCAAAGCATTTGGAGATTGCCACCTTGG | -1.23 |
| TTATCTGATAAGTCCATACCTAGTCTTATC | 0.551 |
| GTTATCACAGGCTTGGAATGTTTCTGTATC | 0.74 |
| TTGGGGTCCAAAGTCTTTGTTCCTAGCCAC | 4.57 |
| TTGTCAAAGATAGTTGTAGTTACAGCTCAT | -0.973 |
| GAATCTGTTCCACCTGATCAAGCAACTGGC | -1.2 |
| ATGGAGAAGATAAGCAGATCTTTAGAGACA | -1.2 |
| CCAGGGGAGGTTATCTTGGGGCTAATGTCT | 1.23 |
| CCATTTGCTGCTCTAGATGAGGGGGAAAGG | -1.12 |
| ATCTCCAGATAAGACTTTGGACTTTGGACC | 11.8 |
| TCACATTGGAGGAGGGGGCGGTTAAACATT | 0.332 |
| GGCCTGGACTCCAAGCCCCAAAAACTTGGA | -0.426 |
| GGAGCTGGTGGAGCAAAAAGGCCGTTCAAA | -1.41 |
| TGGCTTCTGACCTTTGGCATTGTGTTACGT | 5.41 |
| CTTCTTCTGGAGCCTCAGTAAGTTTACTTC | 0.562 |
| TAACAGCGGCATTCCTGTCAAAATCTGATC | -0.413 |
| AGATAAAAAGCTTTTCTTCCCCCCTCCCTC | 5.54 |
| GCTTCTGTTCGCAGACCTGCCAAAGTGTAC | 1.46 |
| GTGTGCACAAGTCCTCACAATAATGAGAAA | -1.33 |
| GCTATGCCTTAGCAAACAGACTGGTGGCAT | -1.29 |
| GTGTGTATGAGAGAGAGAGAGAGGTGGGCA | -0.365 |

| Sequence | binding signal (log2 normalized intensity) |
| --- | --- |
| TCCCAGTTGTCTGATGGCTGCTTCACACAA | -1.39 |
| TCATTCATATCACCTAGGTGGAATCTTATA | 0.948 |
| CCCGCAGTGAGGGACAAGGCTGTCCCCCAT | 1.75 |
| GCAAATCTCTTGGTCATGGAGGGAACAAAA | -0.207 |
| AAAGGGGAAAAGGTCAAATACCAAAATGTG | 2.38 |
| GCCCCCCGCCCAGTGAAAACAGCCCTAACC | 4.32 |
| CACCCCCATGCAAGTTCCCACAGAGCCCAC | 4.56 |
| AGGGAATAAAGAACTCTAAGCAGCGAAGCT | -1.25 |
| GCTGGCTATCAGTTGAGATTTATTCCCAGG | -1.33 |
| CACAGCTGAATCCAAAGGTCAATGCCAGGA | 4.65 |
| AGTACACACCTGCAACCTATTTCTTTTTGA | 0.0139 |
| GTACCTCCTTTCAGAACGTGTTTCCAGGCA | 0.55 |
| GAAATATCATTATCTTGATCAGAAAAGAAA | 0.28 |
| ACCCACCTACATTGATATTCCATATCAGCT | -1.1 |
| TAGAATGTGCTGGATGTTTCCTTTGAACTC | 3.35 |
| CCGCCCAGTGAAAACAGCCCTAACCAGGGG | -1.42 |
| TCTTAAGCTAACATGTACAGTATTGCGTAA | -1.29 |
| ACTTCACTCAGTGGGGTGTCTGTGTGCCTC | 1.82 |
| CCTTTGGAAGGTGGGGGAGGAGACAGCTAC | -1.3 |
| CATAAGCCTTGCTGAGGAATTTGGACTTCA | 5.01 |
| AGTGTTTTATGTGTATTTACTTATTGATAA | 1.99 |
| AGGCAGATATACCAGATAAGGCAGTGGTTT | -0.984 |
| ATCTCACATTCGTTAACATCAGCTGAGCAG | 0.803 |
| TGGGAGGCAAAGGTTGCAGTGAGCTGTGAT | 1.8 |
| TTTGTCAGCATCTTCACCGTAAAGCCACCC | 0.913 |

| Sequence | binding signal (log2 normalized intensity) |
| --- | --- |
| ACAGTCCCTCCTCCAGCATAGGCTAGGACC | -0.686 |
| TAAGCGCTGCCCTGGTAAGTTCCACTGCAT | -1.23 |
| GGCCTACTTAGTCCAGGTTTAGCAAGAATA | -1.27 |
| TCAGATTCCTCACTGATAAAACTGGAATAA | -1.34 |
| TGGAGATAATAGGAGATAATAATACTTATC | -1.22 |
| TTATCTTCTCCCCTGCCAAATCATGGAGGT | 1.34 |
| AAATGTCCTGAGTGATTGTAGTGTCATTGT | 1.81 |
| GCCTGCCTGCCAACTCCACGCCCGCCGCCA | -1.15 |
| AGGCCTGGAACCTGTCTGACAGGATGAATT | -1.33 |
| TACTTTGGACTGGGGACCTGGTCTGAGATA | 1.25 |
| CGCGCGGGAGGAGGAGACAAAGGCCGCGCC | 2.13 |
| TCACTGCTCTGGCCACTCCCTGGGCAGTGC | -1.21 |
| GGTGAGAGGGCTCTGTCTGCTGGGCCTTCA | -1.21 |
| GGCTCAGGTTGCTGCCAGAGGGTGGCAGCA | -1.02 |
| TCGCGAATCTGGCTAATGCATGTCCCTCCT | 0.811 |
| TTAATTTAGCACTTAGTTCCCCAAATATTC | 1.63 |
| ACAAAAACTGTTTCTATGTGACCTTCACCC | 5.89 |
| CCAGTTCTGTGTACAAAGCCCCATATTCAT | 1.86 |
| CTGGGAACAAGTTCTGCAGACTCCCTAGAA | -1.15 |
| CTCAAGGCAAGTTGCTTCCACCTATGAGTC | 0.0563 |
| CGACCTGCTGGGCTGCATTCCCAGATGGTT | -1.44 |
| GGCTAGATTGCAACCAAGTCCATCTGTATT | 0.652 |
| ATTATGAACTAATTTGTCTTTTCTCCCCCG | 4.22 |
| ATCTCTGCTCATAATGCCAGGCAGGAAGGA | -1.15 |
| AGACCTCCCCCAACTTACTTAGTGGCTCCT | 2.35 |

| Sequence | binding signal (log2 normalized intensity) |
| --- | --- |
| GGCCACTCCCTGGGCAGTGCAGTATGCGCT | -1.33 |
| AGGTGAACCAGGGTGCAATTCGCATTTCTG | -1.02 |
| AGGGAATGTAAGGCACTTTATCTAGATAAG | -1.23 |
| GGAGCATGGGGGATGGGGCCTGGGAGATAA | -1.35 |
| TTATCACTTTGTAATGTCCCTCTTTATCTC | 1.39 |
| TCATCCGCATCTGAAGATAAGAGAAGTTGC | -1.03 |
| ATGGGGGATGGGGCCTGGGAGATAAGGGTT | -1.23 |
| GGGAGGAGTTCAGATCACAAAGGAGCTTGT | -1.35 |
| CCCTCTCCCACTCCCCTCCTCCAGATGGGC | 4.18 |
| TCCCTCACTGGAGGTTGAATTCCAAAGGTT | 4.1 |
| CTGGGACGTGGCTCAAGATTACAGGTGATC | 0.759 |
| TCAGCCTTAACTCAAAAGGCCAAAGTCCAA | 9.11 |
| GGCAAGTGGTCATGTAGGTGTCTCAGGAAT | 1.03 |
| CATGAAGCTTCCCCTTTAACCAATATTAGC | 0.107 |
| TGAACTACACAGATTCTGCAAACCTATTAA | -1.38 |
| GGGCCGGTACAAAAGGCCAAAGCCAGGGGA | -1.05 |
| CTTGCCGCATTCCCAGCATTCCAAGTGAGT | -0.88 |
| GGTAGTGGACTCTAAGGCAAAACACCCCTT | 2.43 |
| GGACTAAGAATTGCTCAACCTGGACCTCAT | 1.89 |
| TCCCACTAGGTGGCGCTGTTGACCTTGAAA | 3.78 |
| TTAGTTCTGCAAACACCCCTCCCCCACACA | 5.7 |
| GAAACTCACATACTGTGGACATAAAAAGAT | -0.748 |
| CCCAGCTTTCATCTCGGCTGGCTACTGCTC | -1.29 |
| TACTGCAACCTGTTTTACCAGGAAGGGCTT | -1.32 |
| AAATGGAGCAGCTCTGTATTGAGATAAGCA | -1.26 |

| Sequence | binding signal (log2 normalized intensity) |
| --- | --- |
| ACAGCAACTAGCAACTTGGACCTTGATAGG | 4.7 |
| AGCAGATGGCCAGCCTTTGGACTTTGAACT | 11.2 |
| AATTCCAGCTTCCCCACTTATTACCGGTGT | 0.859 |
| TGGACTCTGCAAGGAAGGTGGGGGCCGCCC | 1.06 |
| CATTGACTTTGCCTTTTGGCTAAAGTCCAA | 4.75 |
| AGGGAGGCTTTTGCAGTCACTCTCTAGAAT | -1.12 |
| GTCCAAAGGTCAGCAAGCCTGGAGTTCTGA | 5.05 |
| ATTGAATGTGTTACACCTGTGTGTACTGGG | 1.83 |
| CAGCAGTAACCCCCCAGGAGCGAGTCAAGG | 2.91 |
| CTCTAGACTCCAGCTAAAGCCTGCTCGTTG | -1.38 |
| GCGAGTCCAGCCAGGTTGCATCAGCTGGGC | -1.33 |
| ACACCTGCCTTTGATCAGGGACCTTTGTTC | 5.31 |
| CCGGAGCGGCGGACCCGGCGGACCGGGGGG | -1.27 |
| GGCAGGAGTGGGAGGCTGGGGCCTCCTGGC | -1.36 |
| TAGACTTTGGACCTGGCCTGCGGGGTCAGG | 6.35 |
| GGCCGTAAAGATAAGAACGCTAGACACTGG | -1.27 |
| CTAGCCTCGAGATAACCCACCTCCGGCCGG | -1.35 |
| GAGTCATAAAGGGCAGGAACATCAGACACA | -1.16 |
| TGAGCAGGATTATAGTTTATCTACCTTTGT | 2.05 |
| AACTGACTGCATTCCCTTTCTCCTCCCCTC | 3.16 |
